Data published in PubChem BioAssay AID686979 (National Center for Advancing Translational Sciences (NCATS), 2013).
Several values for one entry are separate records, joined by “and”; a condition that tells them apart may be missing. Equal values may be shown once. Out of some 420,000 compounds screened, about 50,000 (12%) were called active. Inconclusive means that the source gave no clear call. Such entries were picked first, then a sample of the others. Calls come from the whole dose curve; as a rule, active = well fitted inhibition curve with a large enough effect; inconclusive = small, poorly fitted or top-dose-only effect; inactive = flat fitted curve, though single readings scatter. Potencies of inconclusive entries are left out as doubtful fits.

test: qHTS for Inhibitors of human tyrosyl-DNA phosphodiesterase 1 (TDP1): qHTS in cells in presence of CPT; conditions: chicken DT40 Tdp1-/-;hTDP1 cells + 20 nM CPT, ATP luminescence, 48 h; series mostly up to 46.2 µM; note: nearly all actives have a fitted effect of over 55% in size
Summary of the method: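 Chicken DT40 Tdp1-/- cells stably complemented with human TDP1 were seeded at 400 cells/well in medium containing 20 nM camptothecin, exposed to pin-transferred compounds, and grown at 37 °C for at least 48 hr. Viability was read as ATP luminescence.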
Potency is the fitted concentration of half-maximal effect; tags give direction and shape of the fitted curve.

Compound | Potency
CCN(CC)C(=O)CSc1nc(-c2cccs2)cc(-c2cccs2)c1C#N | active: 23.1 µM
COc1ccc(C(CNC(=O)Cc2cc(OC)c(OC)c(OC)c2)N2CCCC2)cc1 (stereo unspecified) | inactive
COc1ccc2[nH]cc(CCNc3ncncc3-c3ccc(N(C)C)cc3)c2c1 | inconclusive [inhibitor, single point]
O=C1NC[C@@H](CCCCN2C[C@H](Cc3ccc(O)cc3)N(CCc3ccc(O)cc3)C(=O)C2=O)N(Cc2ccccc2)C1=O | inactive
O=C(Nc1cccc(C(F)(F)F)c1)C1CCCN1S(=O)(=O)c1cccc2cccnc12 (stereo unspecified) | active: 23.1 µM
CCC(Cc1ccccc1)NS(=O)(=O)c1ccc2c(c1)NC(=O)CO2 (stereo unspecified) | inconclusive [inhibitor, single point]
COC(=O)c1cccc(Nc2ncnc3sccc23)c1 | active: 20.6 µM
CCCCCCCCCC(=O)Nn1cnc2ccccc2c1=O | inactive
O=C(NC1CCCCCCC1)C1c2ccccc2C(=O)N1Cc1cccs1 (stereo unspecified) | active: 13 µM
COc1ccc2nc(C)cc(Nc3ccc(C)cc3)c2c1 | active: 5.8 µM
Cc1c(C(=O)Oc2cccc3ccccc23)cnn1-c1ccccc1 | inconclusive [inhibitor, single point]
O=C(N/N=C/c1ccncc1)c1ccc(NS(=O)(=O)c2cccs2)cc1 | inactive
CCCc1nnc(SCC(=O)N2CCCCC2)n1CCCOC | inactive
COc1ccc(Cl)cc1NC(=O)CN1CCCC1 | inactive
CC1=C(C(=O)Nc2ccc(CC(=O)NCc3ccccc3C)cc2)SCCO1 | inconclusive [inhibitor, single point]
CCOc1cc(N2CCOCC2)c(OCC)cc1NC(=O)COC(=O)CCOc1ccc(C)cc1 | inconclusive [inhibitor, single point]
COc1ccc(N(CC(=O)N2CCN(c3cccc(C)c3C)CC2)S(=O)(=O)c2c(C)noc2C)cc1 | active: 16.4 µM and active: 20.6 µM
COc1ccc(-c2cn3nc(N4CCC(C(=O)Nc5cccc(C)c5C)CC4)sc3n2)cc1 | active: 20.6 µM
Cc1cc2cc(CN(CCN(C)C)C(=S)NCc3ccco3)c(=O)[nH]c2cc1C | inconclusive [inhibitor, single point]
Cc1ccc(CNS(=O)(=O)c2ccc3c(c2)CCN3S(C)(=O)=O)cc1 | inconclusive [inhibitor, partial curve]
Fc1ccc(-c2ccc3nccn3c2)cc1Cl | inconclusive [inhibitor, single point]
